# Results published in PubChem BioAssay AID624296 (National Center for Advancing Translational Sciences (NCATS), 2012).
# Hit rate of the full screen: of about 350,000 compounds, about 9,900 (2.8%) were called active. Inconclusive results, whose numbers are uncertain, are shown with a selection of clear calls. The call rests on the fitted dose curve; in most records, active means well fitted activation curve with a large enough effect; inconclusive means small, poorly fitted or top-dose-only effect; inactive means no such curve, though single readings can be large or run the other way. Potencies of inconclusive entries are left out as doubtful fits.
# Assay: A quantitative high throughput screen for small molecules that induce DNA re-replication in MCF 10a normal breast cells. Further: nearly all actives have a fitted effect of over 50% in size.
# Details: MCF 10A DNA re-replication, Hoechst nuclear intensity, 48 h; series mostly up to 46.1 µM
# Potency means the concentration at half of the fitted maximal effect; tags describe the fitted curve by direction and shape.
row,Compound,Potency
1,CC1CCCC(C)N1C(=O)CSc1ccc(-c2ccc3c(c2)OCCO3)nn1 (stereo not drawn),inactive
2,CCN(CC)CCNC(=O)c1ccc2c(c1NCCO)C(=O)c1ccccc1C2=O,inactive
3,COc1cc(N)ccc1NC(=O)c1cccs1,inactive
4,O=c1[nH]c(-c2ccccn2)nc2sc(-c3ccccc3)cc12,active: 1.3 µM
5,CCOC(=O)N1CCN(c2c(N3CCN(c4ccc(F)cc4)CC3)c(=O)c2=O)CC1,inactive
6,O=C(CC1C(=O)NCCN1C(=O)Nc1ccccc1)Nc1ccc2c(c1)OCCO2 (stereo not drawn),"inconclusive [activator, single point]"
7,Cc1cccc(NC(=O)CSc2nc3c([nH]c4ccccc43)c(=O)n2C)c1,"inconclusive [activator, partial curve, poor fit]"
8,CC(C)(C)c1ccc(Oc2cccc(C3CC(=O)C(C4NCCc5ccccc54)C(=O)C3n3cncn3)c2)cc1 (stereo not drawn),"inconclusive [activator, partial curve]"
9,Cc1c(CCOC(=O)c2cc([N+](=O)[O-])cc([N+](=O)[O-])c2)sc[n+]1CC(=O)c1ccccc1,inactive
10,O=C(O)c1ccc(NS(=O)(=O)/C=C/c2ccccc2)cc1,inactive
11,O=C(Nc1ccccc1)c1cc([N+](=O)[O-])ccc1N1CCCCC1,"inconclusive [activator, partial curve, poor fit]"
12,O=C(CN1CCOCC1)Nc1ncc(Cc2cccc(Cl)c2Cl)s1,"inconclusive [activator, single point]"
13,C[C@H](CO)N1C[C@H](C)[C@@H](CN(C)Cc2ccncc2)Oc2c(NC(=O)Cc3ccccc3)cccc2C1=O,inactive
14,OCCN1CCN(c2cc(C(F)(F)F)nc3c(F)cccc23)CC1,inactive
15,Cc1ccc(SCC(=O)c2cc(C)c(OC(=S)N(C)C)c(C)c2)cc1,"inconclusive [activator, partial curve]"
16,Clc1ccccc1-c1ccc(/C=N/n2cnnc2)o1,inactive
17,S=c1[nH]nc(CCc2nc3ccccc3[nH]2)n1-c1ccccc1,inactive
18,Cn1c(SCC(=O)NCC2CCCO2)ncc(C(=O)Nc2ccccc2)c1=O (stereo not drawn),"inconclusive [activator, single point]"
19,Cc1cccc(Oc2c([N+](=O)[O-])c(=O)n(C)c3ccccc23)c1,"inconclusive [activator, single point]"
20,COc1ccc(NC(=O)CSc2nnc(Cc3cccn3C)n2CCc2ccccc2)c(OC)c1,"inconclusive [activator, partial curve, poor fit]"
21,NC(=O)c1[nH]cnc1N,inactive
22,CCN(CC)CCNc1nc(SC)nc2sc3c(c12)CCN(C)C3,"inconclusive [activator, partial curve, poor fit]"
23,Cc1ccc(C)c(OCCC(=O)OCC(=O)Nc2cccnc2Cl)c1,"inconclusive [activator, single point]"

row,Compound,Potency
1,N#C/C(=C\N1CCN(Cc2ccc3c(c2)OCO3)CC1)c1nc2ccccc2s1,active: 20.6 µM
2,O=C1/C(=C/c2cccnc2)SC(=S)N1C1CCS(=O)(=O)C1 (stereo not drawn),active: 14.6 µM
3,CC(=O)c1ccccc1-c1csc2ncnc(Sc3nnnn3C)c12,"inconclusive [activator, single point]"
4,O=C1C(Cl)=C(NCCN2CCCCC2)C(=O)c2ccccc21,"inconclusive [activator, partial curve, poor fit]"
5,CCN(CC)c1ccc(NC(=O)CCS(=O)(=O)c2ccc(Br)cc2)c(C)c1,"inconclusive [activator, partial curve, poor fit]"
6,CCOC(=O)c1sc(NC(=O)CS(=O)(=O)c2ccc(C)cc2)nc1C,"inconclusive [activator, single point]"
7,COc1ccccc1NC(=O)Nc1nc(CC(=O)N2CCN(c3ccccc3)CC2)cs1,"inconclusive [activator, single point]"
8,CC(C)Sc1cc(N2CCCC2)nc(-c2ccccc2)n1,"inconclusive [activator, single point]"
9,CC[C@]12CCCN3CCc4c(n(c5ccccc45)C(=O)C1)[C@@H]32,"inconclusive [activator, single point]"
10,CCNc1nc(NC(C)C)nc(NC(C)(C)C)n1,"inconclusive [activator, single point]"
11,COc1ccc(OC)c(S(=O)(=O)N2CCN(CC(O)CN3CCOCC3)CC2)c1 (stereo not drawn),"inconclusive [activator, partial curve, poor fit]"
12,S=c1nc2ccccc2c2nc(-c3ccccc3)[nH]n12,inactive
13,CC1CCN(CC2C(=O)O[C@@H]3C[C@@]4(C)CCC[C@H](C)C4=C[C@H]23)CC(C)(C)C1 (stereo partly drawn),"inconclusive [activator, single point]"
14,Cc1nc2ccccn2c1C(=O)/C=C/c1ccc(F)cc1,"inconclusive [activator, single point]"
15,COC(=O)c1ccccc1NC(=O)N1CCN(c2ccccc2)CC1,inactive
16,Cc1ccc(NC(=O)c2sc3nc(C)nc(N4CCN(c5ccccn5)CC4)c3c2C)c(C)c1,"inconclusive [activator, single point]"
17,CC(C)(C)n1nnnc1C(c1ccncc1)N1CCN(C2CCCCC2)CC1 (stereo not drawn),"inconclusive [activator, partial curve, poor fit]"
18,COc1cccc(N(C(=O)Cn2nnc(-c3ccc(F)cc3)n2)C(C(=O)NCC2CCCO2)c2ccc(Cl)cc2)c1 (stereo not drawn),"inconclusive [activator, partial curve, poor fit]"
19,CC(C)c1ccc(C2(C)NC(=O)N(CC(=O)NC3CCCC(C)C3C)C2=O)cc1 (stereo not drawn),"inconclusive [activator, partial curve, poor fit]"
20,C=C1CCN([C@H](C(=O)OCc2ccc(C)cc2)C(C)C)S(=O)(=O)c2ccccc21,"inconclusive [activator, single point]"
21,O=C(c1ccc(Cl)c([N+](=O)[O-])c1)N(Cc1cccc(Cl)c1)C1CCS(=O)(=O)C1 (stereo not drawn),inactive
22,Cc1cc([N+](=O)[O-])ccc1NCc1ccc2c(c1)OCCO2,"inconclusive [activator, partial curve, poor fit]"
23,CCOc1cc(/C=C/C(=O)OCC(=O)NCc2ccco2)cc(Cl)c1OC,"inconclusive [activator, single point]"

row,Compound,Potency
1,Cc1ccc(S(=O)(=O)N(C)c2ccc(OCC(=O)Nc3nc(-c4ccccc4)cs3)cc2)cc1,"inconclusive [activator, full curve]"
2,COC(=O)c1sc2nc(-c3ccccc3)c3c(c2c1N)CCCC3,"inconclusive [activator, partial curve, poor fit]"
3,CCc1cc2c(-c3ccccc3)cc(=O)oc2cc1OC(C)C(=O)O (stereo not drawn),inactive
4,CCC(C(=O)Nc1ccccn1)c1ccccc1 (stereo not drawn),"inconclusive [activator, partial curve, poor fit]"
5,CCc1cc(=O)oc2c(C)c(O[C@@H]3O[C@H](CO)[C@@H](O)[C@H](O)[C@H]3O)ccc12,inactive
6,Fc1ccc(Nc2ncnc3sccc23)cc1,"inconclusive [activator, single point]"
7,O=C(N/N=C/c1ccccn1)c1cc(-c2ccccc2)nc2ccccc12,"inconclusive [activator, partial curve, poor fit]"
8,Nc1nc(SCC(=O)NC2CCCCC2)[nH]c(=O)c1-c1ccccc1,"inconclusive [activator, single point]"
9,Cc1cccnc1N(C(=O)Nc1cccc(Cl)c1)C1=NCC(C)(C)S1,inactive
10,CN1CCN(CCNC(=O)Cn2c(=O)c3cccn3c3ccc(F)cc32)CC1,inactive
11,Cc1cccc(N2CCN(C(=O)CSc3nc4ccccc4nc3N3CC(C)OC(C)C3)CC2)c1C (stereo not drawn),"inconclusive [activator, partial curve, poor fit]"
12,COc1ccccc1N1CCN(C(=O)C2CC2)CC1,"inconclusive [activator, single point]"
13,c1cncc(-c2nc3cc4ccccc4cc3[nH]2)c1,inactive
14,CCOc1ccc2[nH]c(=O)c(CN(CCc3ccccc3)C(=O)c3cnccn3)cc2c1,inactive
15,COc1cc(C#Cc2c(-c3cncn3C)n(C)c3ccc(-c4ccc(OC)nc4)cc23)cc(OC)c1,"inconclusive [activator, full curve, poor fit]"
16,Cc1cc(=O)oc2cc3c(cc12)OCCO3,inactive
17,C1CC(=NN=C2CCSCC2)CCS1,inactive
18,CCCCC(=O)Nc1nc2c(s1)COc1ccccc1-2,inactive
19,C(=C/c1ccccc1)/CN1CCN(C(c2ccccc2)c2ccccc2)CC1,"inconclusive [activator, single point]"
20,O=C(NCc1ccccc1)C(c1c(F)cccc1Cl)N(C(=O)c1csnn1)C1CC1 (stereo not drawn),"inconclusive [activator, single point]"
21,c1ccc2c(-c3cncc4ccccc34)cncc2c1,"inconclusive [activator, single point]"
22,COC(=O)C1=C(C(=O)OC)[C@@H]2N(C)c3ccccc3[C@@]23C[C@@H](C(=O)OC)N(C(=O)c2cc(C)oc2C)C3=N1,"inconclusive [activator, partial curve, poor fit]"
